# In all, about 45,000 compounds went through this assay and about 200 (0.44%) were called active. Roughly 7% stayed inconclusive and do not appear here. The call rests on the fitted dose curve; in most records, active means well fitted activation curve with a large enough effect; inconclusive means small, poorly fitted or top-dose-only effect; inactive means no such curve, though single readings can be large or run the other way. The list shows a part of the results.
# Experiment: qHTS of TDP-43 Inhibitors: NCGC Sytravon Library Screen; further: 0% is about no effect; nearly all actives have a fitted effect of over 55% in size
# Settings: yeast TDP-43 toxicity rescue, BacTiter-Glo growth, 24 h; series mostly up to 46.1 µM; growth rescue (activation): at the top concentration
# Procedure, shortened: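 TDP-43-expressing yeast, pregrown in raffinose, seeded at OD600 0.02 in galactose medium with compound for 24 hr at 30 deg C. Growth read by BacTiter-Glo luminescence, so rescue of toxicity appears as activation.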
row,SMILES,growth rescue (activation)
1,O=[N+]([O-])c1cc([N+](=O)[O-])c2cc3ccccc3nc2c1,inactive: -19.7%
2,CCCc1nc2cc(Cl)c([N+](=O)[O-])cc2o1,inactive: 10.4%
3,CC(=O)Nc1ccc(S(=O)(=O)Nc2ccc(S(=O)(=O)Nc3nc(C)cc(C)n3)cc2)cc1,inactive: -4.41%
4,Cc1ccc(C(=O)N(C)Cc2ccccc2)cc1S(=O)(=O)N1CCOCC1,inactive: 13.6%
5,COc1ccc2c(c1OC)C(=O)OC2Nc1nc(-c2ccc([N+](=O)[O-])cc2)cs1 (configuration not stated),inactive: 9.46%
6,CC(C)(C)NC(=O)NC(=O)CN1CCN(Cc2ccccc2)CC1,inactive: -5.93%
7,OC(c1cccc(Cl)c1)c1ncc(-c2ccc3ccccc3c2)[nH]1 (configuration not stated),inactive: 5.68%
8,Cc1ccc(S(=O)(=O)Nc2ccc(O)c(Sc3ncn[nH]3)c2)cc1,inactive: 11.8%
9,Cc1cc(OCc2cc(C(=O)NCc3csc(C(C)C)n3)no2)cc(C)c1Cl,inactive: 19.7%
10,CCc1sc(C(=O)N2CCc3ccccc32)cc1C,inactive: -9%
11,Cc1ccc(C(=O)NCCNC(=O)c2ccco2)cn1,inactive: -5.08%
12,CC1(C(=O)NS(=O)(=O)c2cccc(Cl)c2)CCN1C(=O)Cc1cccs1 (configuration not stated),inactive: 0.583%
13,O=C(COC(=O)CNC(=O)c1ccccc1)Nc1ccccc1Cl,inactive: -6.41%
14,COc1cccc(C(NC(C)=O)c2nc(-c3cc4ccccc4o3)cs2)c1 (configuration not stated),inactive: 18.8%
15,COc1cc2c(cc1OC)CN(C(=O)COc1ccccc1C#N)CC2,inactive: 18.4%
16,O=C(NCc1ccccn1)c1nc(-c2ccc(C(F)(F)F)cc2)no1,inactive: -6.53%
17,O=C(c1cc(S(=O)(=O)N2CCCC2)c(Cl)cc1Cl)N1CCCC1,inactive: 4.97%
18,COC(=O)c1ccc(CSc2nnc(C)n2N)o1,inactive: 3.77%
19,Cc1ccc(O)c(NC(=O)c2noc3c2CCc2ccccc2-3)c1,inactive: -5.32%
20,CCSc1n[nH]c(=S)s1,inactive: 11.3%
21,Cc1nc(SCC(=O)N2CCOCC2)c2c(C)c(C)sc2n1,inactive: 4.6%
22,CC1(C(=O)NS(=O)(=O)C2CC2)CCCN(C(=O)c2ccco2)C1 (configuration not stated),inactive: -2.61%

row,SMILES,growth rescue (activation)
1,O=C(NCC1(N2CCCCC2)CCCCC1)c1ccc(S(=O)(=O)N2CCCC2)cc1,inactive: 7.04%
2,CCOc1ncccc1C(=O)OCC(=O)N1CCc2ccccc21,inactive: -7.95%
3,CCc1c(C)sc(NC(=O)/C=C/c2ccc3c(c2)OCO3)c1C(=O)OC,inactive: 29.7%
4,COc1ccc(NS(=O)(=O)c2cccc(C(=O)NN=Cc3ccc(O)c(OC)c3)c2)cc1,inactive: 10.1%
5,CS(=O)(=O)c1cnc(-c2ccccc2)nc1-c1ccc(Cl)c(Cl)c1,inactive: 3.73%
6,CCOc1ccccc1N(C(=O)c1ccco1)C(C(=O)NC1CCCC1)c1cccs1 (configuration not stated),inactive: 6.03%
7,COc1cc(/C=C(/C#N)c2ccccc2F)ccc1OCc1ccccc1,inactive: 9.68%
8,C=CCn1c(SCC(=O)N2CCCCCC2)nc2ccccc2c1=O,inactive: 1.74%
9,COc1cccc(-c2cc(=O)[nH][nH]2)c1,inactive: 3.31%
10,CC(O)c1n(C)c(Cl)c[n+]1C (configuration not stated),inactive: 17.2%
11,Cc1csc(N2CCCC2=O)n1,inactive: -11.8%
12,CCN(C(=O)COC(=O)c1ccc(Cl)c(N)c1)C1CCS(=O)(=O)C1 (configuration not stated),inactive: 0.465%
13,O=c1[nH]c(C2CCN(S(=O)(=O)/C=C/c3ccccc3)CC2)nc2c1nnn2Cc1ccc(F)cc1,inactive: 20%
14,CCOC(=O)COc1ccc(C2CC(C)=NN2c2ccccc2)cc1 (configuration not stated),inactive: 12.8%
15,COc1cccc(C(O)c2ncc(-c3cccc(C(F)(F)F)c3)[nH]2)c1 (configuration not stated),inactive: 21.5%
16,COc1ccc(N2CCN(S(=O)(=O)c3ccc4oc(=O)ccc4c3)CC2)cc1,inactive: 7.52%
17,CCCS(=O)(=O)N1CCCC(C(=O)NC(C)c2ccc3c(c2)OCCO3)C1 (configuration not stated),inactive: 6.04%
18,O=C(NNS(=O)(=O)c1cccc(Cl)c1Cl)c1cccc(S(=O)(=O)N2CCOCC2)c1,inactive: 8.52%
19,CCOC(=O)c1ccccc1NC(=O)Cc1ccc(OC)c(S(=O)(=O)N2CCOCC2)c1,inactive: -14.3%
20,Cc1cccc(C)c1NC(=O)CNC(=O)c1ccccc1,inactive: 14.2%
21,CC1=C(C(=O)Nc2cc(C)cc(C)c2)C2(CCCCC2)OC1=O,inactive: 5.11%
22,Cc1ccc(C(=O)N2CCN(S(=O)(=O)N3CCCCCC3)CC2)cc1,inactive: -14.9%

row,SMILES,growth rescue (activation)
1,COC(=O)c1cc(NC(=S)NCc2ccc(Cl)cc2)cc(C(=O)OC)c1,inactive: 24.3%
2,Cc1c(CCC(=O)N[C@@H](CC(C)C)C(=O)O)c(=O)oc2c(C)c3oc4c(c3cc12)CCCC4,inactive: -5.6%
3,Cc1ccc(S(=O)(=O)NCC(C)n2cncn2)cc1C (configuration not stated),inactive: 5.49%
4,COc1cc(/C=N/O)cc(Cl)c1OC,inactive: 34.7%
5,COc1cccc(CNc2nc3cc(-c4cccc(C(F)(F)F)c4)sc3c(=O)n2C)c1,inactive: 24.2%
6,Cc1ccsc1CN1CCC(C(=O)NCc2ccccc2Cl)CC1,inactive: 5.38%
7,CC1(C(=O)NCc2ccc3c(c2)OCO3)CCN1CCc1ccccc1 (configuration not stated),inactive: -5.59%
8,CC(=O)NCc1ccc(S(=O)(=O)N2CCCN(C)CC2)cc1,inactive: -2.04%
9,COc1ccc(NC(=S)N2CCCC(c3nc4ccc(C)cc4[nH]3)C2)c(OC)c1 (configuration not stated),inactive: 6.29%
10,O=C(N=Nc1c(O)[nH]c2ccccc12)c1cccs1,inactive: -14.5%
11,CN(C)C(=O)N1CCN(C(=O)N2CCOCC2)CC1,inactive: 24%
12,COc1ccc(C(=O)COC(=O)c2ccc3ccccc3n2)cc1,inactive: 4.26%
13,CC[C@@H](C)[C@H](NC(=O)Cc1c(C)c2c(cc(C)c3c(C)coc32)oc1=O)C(=O)O,inactive: -11.3%
14,Cc1ccc(S(=O)(=O)/N=C2\C=C(NS(=O)(=O)c3ccccc3)C(=O)c3ccccc32)c(C)c1,inactive: -0.127%
15,COCCCn1cnc2c(c1=O)c1nc3ccccc3nc1n2CCc1ccccc1,inactive: 28.1%
16,Cc1ccccc1OCC(=O)Nc1ccc2c(c1)n(C)c(=O)n2C,inactive: 28.7%
17,CC(=O)NC(=S)Nc1ccccc1N1CCN(C(=O)c2ccccc2)CC1,inactive: 16.8%
18,CN1CCN(C(=O)c2cc(COc3c(F)cccc3F)on2)CC1c1ccccc1 (configuration not stated),inactive: -81.7%
19,Cc1cc(SCC(=O)N/N=C/c2ccc(C(=O)O)cc2)nc2ccccc12,inactive: 17.1%
20,N#Cc1ccc(C(=O)N2CCCCC2c2cc(C(=O)NCc3ccccc3)no2)cc1 (configuration not stated),inactive: 6.68%
21,COc1cc(C(=O)OC(C)C(=O)Nc2ccc3c(c2)OCCO3)cc(OC)c1OC (configuration not stated),inactive: 37%
22,Cc1cccc(C(=O)NC(=S)NCc2cccnc2)c1,inactive: 7.24%

row,SMILES,growth rescue (activation)
1,CC1CCN(Cc2c(C(=O)N/N=C/c3cc(Br)ccc3O)nnn2-c2nonc2N)CC1,inactive: 6.44%
2,N#Cc1ccc(N/N=C/c2cn(-c3ccccc3)nc2-c2ccccc2)c([N+](=O)[O-])c1,inactive: 9.43%
3,Cc1ccccc1NC(=O)CCS(=O)(=O)c1cccc2nonc12,inactive: -1.77%
4,CCC(Oc1cccc(C)c1)C(=O)Nc1ccccc1C(=O)N1CCOCC1 (configuration not stated),inactive: 12.6%
5,NS(=O)(=O)c1cccc(NC(=O)CSc2ncc(C(F)(F)F)cc2Cl)c1,inactive: -11.5%
6,COc1ccc(-c2coc3c(C(=O)NCCN(C)C)cccc23)c(C)c1,inactive: 14.7%
7,CC(=O)c1c(-c2ccc(Cl)cc2)c2ccccc2[nH]c1=O,inactive: 6.06%
8,CCc1ccc(Nc2nc(-c3cc4cccc(OC)c4oc3=O)c(CC)s2)cc1,inactive: -15.6%
9,O=C(c1ccco1)N1CCCN(Cc2nc(Cc3ccccc3)no2)CC1,inactive: 0.261%
10,O=C(COc1ncnc2ccccc12)Nc1cc([N+](=O)[O-])ccc1F,inactive: 33.9%
11,CCOC(=O)C1CCN(C(=O)C2CCCN(S(=O)(=O)c3ccc(OCC)c(Cl)c3)C2)CC1 (configuration not stated),inactive: -2.89%
12,NC(=O)[C@@H]1CCCN1Cc1nc(-c2ccccc2)no1,inactive: 17.4%
13,Cc1ccc(CNC(=O)C2CCCN(S(=O)(=O)c3cccc4nonc34)C2)cc1 (configuration not stated),inactive: 4.17%
14,Cc1cccc(N(C)c2cc(-c3ccc(F)cc3)nc3ccnn23)c1,inactive: 10.6%
15,COc1cccc(NC(=O)CSc2nnnn2C2CCCCC2)c1,inactive: -8.54%
16,O=C(COC(=O)c1cc(=O)[nH]c2ccccc12)NC1CCCCC1,inactive: 3.34%
17,COc1cc(/C=N/NC(=O)c2ccc(O)cc2)ccc1OCC(=O)N1CC(C)OC(C)C1 (configuration not stated),inactive: -2.81%
18,COCCNC(=O)c1c[nH]c2ccc(S(=O)(=O)N(C)c3ccc(C)c(C)c3)cc2c1=O,inactive: -2.42%
19,O=C(Nc1ccc2nccnc2c1)c1ccco1,inactive: -4.73%
20,Cc1cc(Cl)ccc1OCC(=O)N(Cc1sccc1C)C1CCS(=O)(=O)C1 (configuration not stated),inactive: 4.75%
21,CCCOc1cccc(C(=O)N(Cc2sccc2C)C2CCS(=O)(=O)C2)c1 (configuration not stated),inactive: 14.8%
22,CCN(CC)S(=O)(=O)c1ccc(N/N=C(\C)c2ccncc2)nc1,inactive: 7%

row,SMILES,growth rescue (activation)
1,Nc1cc(Oc2ccc(F)cc2F)cc([N+](=O)[O-])c1,inactive: 13.3%
2,COc1ccc(NC(=O)CNC(=O)c2nn(-c3ccc(OC)cc3OC)c(=O)c3ccccc23)c(OC)c1,inactive: 0.487%
3,O=C(Nc1ccc2oc(=O)ccc2c1)c1ccc2ccccc2c1,inactive: 11.2%
4,COc1cccc2c(SCC(=O)N/N=C/c3ccc(O)cc3O)cc(C)nc12,inactive: 6.56%
5,CS(=O)(=O)N(Cc1ccccc1)c1ccc(C(=O)N2CCOCC2)cc1,inactive: 22%
6,CN(c1ccc(OCC(=O)NC2CCC(O)CC2)cc1)S(=O)(=O)c1ccc(Cl)cc1 (configuration not stated),inactive: 2.95%
7,Cc1ccc(C)c(N(CC(=O)NCc2ccccc2)C(=O)c2csnn2)c1,inactive: 4.31%
8,COCCNC(=O)C(c1c[nH]c2ccccc12)N(C(=O)c1snc(C(N)=O)c1N)c1cccc(OC)c1 (configuration not stated),inactive: 2.57%
9,O=C(/C=C/c1cccs1)NC1CCCC1,inactive: 17.9%
10,O=C(NCCNC(=O)c1ccccc1F)c1ccccn1,inactive: -6.27%
11,O=C(COC(=O)c1cccnc1Cl)c1ccc(F)cc1,inactive: 3.52%
12,COc1ccccc1N1CCN(S(=O)(=O)c2ccc(-n3cnnn3)c(C)c2)CC1,inactive: 21.4%
13,COc1ccc(C(=O)/C=C/C(=O)N(CC(=O)NCCC(C)C)Cc2cccs2)c(O)c1,inactive: 1.27%
14,CCN(CC)CCOc1ccccc1C(C)=O,inactive: -14.4%
15,COc1cccc(/C=N/Nc2nc(C)cc(=O)[nH]2)c1OC,inactive: -13.8%
16,O=C(Nc1ccccc1)c1c2c(nc3ccccc13)CCCC2,inactive: -4.81%
17,COc1ccccc1N1CCN(C(=O)c2cc(C)on2)CC1,inactive: 7.58%
18,Cc1cc(=O)oc2cc(OCC(=O)OCC(=O)Nc3ccc4ccccc4c3)ccc12,inactive: 20.8%
19,O=C(NCCN1CCN(c2cccc(Cl)c2)CC1)c1ccc(CSc2nc3ccncc3[nH]2)cc1,inactive: 6.79%

# — PubChem BioAssay AID1347073 (National Center for Advancing Translational Sciences (NCATS), 2019)
